Measured values taken from patent US6436948B1, “Method for the treatment of psoriasis and genital warts” (priority 1995, dated 2002).

Tested on: NCI-H322M
Conditions: Non-Small Cell Lung Cancer, PG +50, 48 hours

**Q.** For `Nc1ccn([C@@H]2CO[C@H](CO)O2)c(=O)n1` [(−)-OddC, (−)-(2S,4S)-1-(2-hydroxymethyl-1,3-dioxolan-4-yl)cytosine], which Log10GI50 is on record?
**A.** >−4.00
